# Laboratory results reported in ChEMBL document CHEMBL4888484, “Replenishing the malaria drug discovery pipeline: Screening and hit evaluation of the MMV Hit Generation Library 1 (HGL1) against asexual blood stage Plasmodium falciparum ,using a nano luciferase reporter read-out” (2022).
# Hit rate of the full screen: of about 4,800 compounds, about 410 (8.5%) showed an effect of 50% or more. The list shows a part of the results.
# Tested on: Plasmodium falciparum
# Experiment: Confirmatory screen in NF54 pLDH assay, in single point, at 2uM, 72h
# Assay type: functional, Erythrocyte
# Details: timepoint 72 hour
row,SMILES,% Inhibition [%]
1,CCCC[C@H](CC)C(=O)Nc1c(C)cccc1CC,-8
2,CC(C)(C)c1cccc(Oc2nn[nH]n2)c1,11
3,O=C1NC(c2ccccc2)=NC12CCN(Cc1c(F)cccc1F)CC2,49
4,CCC1=NN2C(=NC(C(=O)O)=C[C@H]2c2ccc(O)cc2)N1,-3
5,NC(=O)[C@@H]1CCCN1C(=O)c1ccnc(OC2CCCCC2)c1,-10
6,O=C(C[C@@H]1C=CCC1)Nc1nc(-c2ccc(Cl)cc2)cs1,13
7,CC(C)c1ccc(-c2nn3c(C4CCN(S(C)(=O)=O)CC4)nnc3s2)cc1,-10
8,CC(C)c1cc(=O)[nH]c(-n2nc(C3CC3)cc2NC(=O)COc2ccc3ccccc3c2)n1,65
9,CCc1nnc(-n2nc(C)cc2C)n1N1C(n2nnc3ccccc32)CCCC1n1nnc2ccccc21 (centres undefined),-5
10,CCOc1cc(-c2cc(-c3ccccc3O)nc3ccc4ccccc4c23)cc(Br)c1O,92
11,CCn1cnnc1C1CCN([C@@H](C)C(=O)Nc2ccccc2C)CC1,11
12,CN(CC#N)C(=O)c1ccc(Br)cc1Br,-7
13,CC1CN(C(=O)COc2ccc3oc4ccccc4c3c2)CC(C)O1 (centres undefined),2
14,CN(Cc1ncnn1C)C(=O)NCC1(c2cccs2)CCCCC1,-23
15,O=S(=O)(c1ccc2ccccc2c1F)N1CC(CO)C1,-13
16,CN1Cc2cc(OCC3(O)CCOCC3)ccc2C1=O,-8
17,CC[C@](C)(NCCc1c[nH]c2ccccc12)c1nnnn1CCCN1CCOCC1,7
18,Cc1ccc(NC(=O)c2ccn(COc3ccccc3Cl)n2)nc1,-14
19,COCCN(CC1CC=CCC1)C(=O)C1CCC(=O)N1 (centres undefined),-4
20,CC(C)(C)c1ccc(NC(=O)N[C@@]2(C)CCS(=O)(=O)C2)nn1,-7
21,Cc1nn(-c2ccc(NC(=O)[C@@H]3CCC(=O)N3)cn2)c(C)c1Cl,-10
22,COc1ccc(C(=O)N2C[C@@H]3C[C@H]2C[C@@H]3NC(=O)c2ccccc2)cc1F,9
23,C#CC[C@H](OC(=O)c1cccn1C)C1CC1,-6
24,C[C@H](C(=O)Nc1nc2c(ccc3ccccc32)s1)C1CCOCC1,8
25,CCCC(=O)Nc1cccc(C(=O)O)c1C,-5
26,CN(C)c1cccc(CNc2ccc(C(F)(F)F)nn2)n1,1

row,SMILES,% Inhibition [%]
1,CC(C)(C)[C@@H](O)CNC(=O)c1c(O)cccc1F,-17
2,CC1(C(=O)NCc2ccc(F)cc2F)CCN(C(=O)CC2CCCC2)CC1,4
3,c1ccc(Cn2ncc3cc(-c4nc(C5CC5)no4)cnc32)cc1,-5
4,COc1ccc(CCNC(=O)CCCC(=O)Nc2cccnc2)cc1OC,12
5,CC1(C)NC(=O)CC[C@@H]1NC1CC(c2cccc(F)c2)C1 (some centres undefined),14
6,Cc1nn(C)cc1-c1nn(-c2nc(C3CC3)cc(C(F)(F)F)n2)c(-c2cn(C)nc2C)c1C,-9
7,CCCC[C@H](CC)C(=O)Nc1ccccc1C,3
8,CC(C)N(C)CC1CCN(C(=O)c2cc(-c3ccccc3)c(N3CCOCC3)s2)CC1,1
9,Cc1ccccc1C(=O)NCc1nn(C2CCCC2)c2c1COCC2,6
10,CC[C@H]1Cn2c(C(=O)NC3CCCC3)cc3c(Cl)ccc(c32)O1,-11
11,O=C(CCCc1nccs1)NCc1cc(Cl)cc2c1OCC2,-6
12,O=C(Cc1ncc(C(F)(F)F)cc1Cl)c1ccc(Cl)c(Cl)c1,13
13,CCN(CCc1ccncc1)S(=O)(=O)c1ccc(N2C(=O)CCS2(=O)=O)cc1C,7
14,C=CCN1CCN(c2nccn3nc(-c4ccc(Cl)cc4)cc23)CC1,3
15,CCN1c2cc(C(=O)Nc3ccc(OC)cc3OC)ccc2C(=O)N2CCCC[C@H]21,15
16,N#Cc1cc(S(=O)(=O)NCCN(C2CC2)S(=O)(=O)c2ccc(Cl)c(C#N)c2)ccc1Cl,86
17,COc1cccc(-c2nc3n(c2C(=O)NCC(C)C)CCS3(=O)=O)c1,7
18,CC(C)CCNC(=O)c1cnn2c3c(cnc12)CCCC3,-8
19,CC1(C)C[C@@H](NC(=O)COc2ccc(CO)cc2)CCO1,10
20,Cc1cc(NC(=O)NC(C)C)c2[nH]c(C(=O)N3CCOCC3)c(-c3ccccc3)c2c1,9
21,Cc1cc(C)cc(OCC(=O)NCCCN(C)C)c1,-10
22,COc1ccc(-c2onc(C)c2C(=O)NCCOc2ccccc2)cc1,-14
23,Cc1noc(-c2cccc(F)c2)c1C(=O)NCCCN(C)c1ccccc1,-10
24,COCCN(Cc1c(-c2ccccc2)noc1N1CCOCC1)C(=O)C1CCCC1,-15
25,CC[C@H]1c2cccn2CCN1C(=O)CCc1cscn1,-22
26,Cc1c(CCO)c(=O)n(C)n1C(=O)c1ccc(F)cc1,7

row,SMILES,% Inhibition [%]
1,CN(C(=O)[C@@H]1CCCN1C(=O)C1CCCC1)C1CCN(c2cnccn2)CC1,-7
2,CC(C)(C)OC(=O)N1CCC(c2c(C(=O)Nc3ccc(Cl)cc3Cl)cnn2-c2cccc(F)c2)CC1,-3
3,Cc1nc2nc(N3CCCCC3)sc2c(=O)[nH]1,15
4,Nc1nonc1C(=O)N1CCCN(S(=O)(=O)c2cccs2)CC1,-21
5,O=C(c1ccccc1)N1N=C(C(F)(F)F)C2CCCCCC21O (centres undefined),-10
6,Cn1cc(N)c(Oc2ccc(F)cc2F)n1,10
7,CN(C)c1ccc(C(=O)N2CC[C@H]3NC(=O)N(Cc4ccccc4)C(=O)[C@H]32)cc1,-5
8,O=C(O)Cc1sc(-c2ccccc2)nc1O,9
9,Cc1cc(NC[C@H](O)c2cnn(C)c2)ncc1Br,11
10,CCOc1c(Br)cc(/C=C(/NC(C)=O)C(=O)O)cc1Br,13
11,CCCc1cc(C(=O)N2CCCCCC2)cs1,-6
12,Cc1cn([C@H]2C[C@@H](OC(=O)c3ccccc3)[C@@H](CO)O2)c(=O)[nH]c1=O,-3
13,O=C(C[C@@H]1NC(=O)c2ccccc2NC1=O)NCc1ccc(Cl)cc1Cl,-6
14,O=C(C[C@H]1CCC(=O)N(Cc2ccccc2)CC1)NC1CCN(Cc2ccccc2)CC1,6
15,Cc1nn(C)cc1[C@@H]1CC(=O)Nc2c1cnn2C(C)(C)C,-21
16,O=C(NC1CC1)N[C@H]1CCN(C(=O)C(C2CCC2)C2CCC2)C1,15
17,COc1ccc(CCn2cc(C(N)=O)c(-c3ccccc3)n2)cc1,2
18,Cc1ccc(-n2nnnc2-c2cnc3cc4c(cc3c2C)OCO4)cc1,-11
19,Cc1cc(CNC(=O)c2csc(=O)[nH]2)n(C)n1,12
20,COC(=O)c1cc(NC(=O)N2CCO[C@H](C(=O)OC)C2)c(F)cc1F,6
21,CCCN(C(=O)c1nccnc1N)C1CC(OCC)C12CCCC2 (centres undefined),2
22,CCOc1ccc(-[n+]2cc(-c3ccccc3)n3c2CCC3)cc1,70
23,COc1ccc(NC(=O)Cn2cnc3nc(N4CCOCC4)ncc3c2=O)cc1,15
24,CC[C@@](C)(C(=O)NC1CCCC1)N(Cc1ccco1)C(=O)c1ccc2c(c1)OCO2,-9
25,COc1ccc(NC(=O)C2=Cc3cc(Cl)cc(OC)c3OC=C2)cc1,-1
26,CN(C)c1nc(N)cc(-c2cccc3cccnc23)n1,55

row,SMILES,% Inhibition [%]
1,COc1ccc(CC[C@](C)(O)c2cc(C(N)=O)no2)cc1,-11
2,COc1ccc(-c2c(C)nn3c(N4CCC(C(=O)NC5CC5)CC4)cc(C)nc23)cc1OC,16
3,Cc1cc(F)c(C(=O)OCc2ccc3[nH]nnc3c2)cc1F,6
4,C[C@H](NC(=O)c1cc(C2CC2)[nH]n1)c1nccs1,-5
5,CCN1c2cc(C(=O)N3CCCCC3)ccc2C(=O)N2CCCCC[C@H]21,6
6,O=C(Nc1ccc(N2CCOCC2)cc1)Nc1ccc(F)cc1F,7
7,O=C(NCc1cc(F)cc(F)c1)c1csc(C(=O)N2CCCC2)n1,-9
8,CCN(CCO)S(=O)(=O)c1ccc2c(c1)CCO2,-8
9,Cc1cc(N(C)CCC2CC2)nc([C@H](C)N(C)CCC2CC2)n1,61
10,O=C1OC(c2ccccc2)=NC1(Cc1ccc(Cl)cc1)Cc1ccc(Cl)cc1,4
11,Cn1cccc1C(=O)N1CCCN(S(C)(=O)=O)[C@H]2CCC[C@H]2C(=O)NCC1,11
12,COC(C)(C)c1nc(Cn2cnc3ccccc32)no1,6
13,Cn1cc(CCCNc2ccc(F)cn2)cn1,9
14,COc1cc(NC(=O)CN2C(=O)N[C@](C)(c3ccc4c(c3)OCCO4)C2=O)c(OC)cc1Cl,7
15,Cn1cccc1C(=O)NCCNC(=O)[C@@H]1CCO1,11
16,COC(=O)c1ccc(N(C)CC(=O)Nc2cccc(C)c2C)nn1,11
17,COc1ccc(-c2cc(C(=O)N[C@H]3CCN(c4ccc(=O)n(C)n4)C3)c(C)n2C)cc1,41
18,COc1ncccc1C(=O)NC[C@H](C)S(N)(=O)=O,6
19,CCn1c(=O)c(CCC(=O)Nc2cccc(C)c2C)nc2c(C)nn(-c3ccc(C)cc3)c21,10
20,COc1ccc(-c2nn3c([C@H]4CCCN(S(C)(=O)=O)C4)nnc3s2)c(OC)c1,7
21,COc1cc(OC)c(NC(=O)COc2ccccc2-c2nc3ccccc3s2)cc1Cl,7
22,Cc1nnc(-c2ccccc2NC(=O)CCC2CCC(C)O2)o1 (centres undefined),-16
23,O=C(CN1CCN(Cc2cccc(Cl)c2)C1=O)NC1CC1,-3
24,COc1ccc(-[n+]2c(-c3ccccc3)cn3c2CCC3)cc1,59
25,O=C(c1cc(-c2ccccc2Cl)nc2ccccc12)n1nnc2ccccc21,-12
26,Cc1cc(N2C[C@H]3CC[C@@H](C2)[C@H]3N(C)C)nc(Nc2cccc(O)c2)n1,86
